Reference: PubChem BioAssay AID686979 (National Center for Advancing Translational Sciences (NCATS), 2013)
“And” between values parts separate entries of the source, which are not always exact repeats. Identical values can stand only once. Screen size: about 420,000 compounds; about 50,000 (12%) were called active. Inconclusive results, whose numbers are uncertain, are shown with a selection of clear calls. Calls come from the whole dose curve; as a rule, active = well fitted inhibition curve with a large enough effect; inconclusive = small, poorly fitted or top-dose-only effect; inactive = flat fitted curve, though single readings scatter. No potency is given beside an inconclusive call; the fits are too rough.

Test: qHTS for Inhibitors of human tyrosyl-DNA phosphodiesterase 1 (TDP1): qHTS in cells in presence of CPT; note: nearly all actives have a fitted effect of over 55% in size
Conditions: chicken DT40 Tdp1-/-;hTDP1 cells + 20 nM CPT, ATP luminescence, 48 h; activity change, negative = growth inhibition: at 46.2 µM (top of the series) unless noted
Summary of the method: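 Chicken DT40 Tdp1-/- cells complemented with human TDP1, 400 cells/well, exposed to compounds plus 20 nM camptothecin for at least 48 h at 37 C; viability read as ATP content by CellTiter-Glo luminescence.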
% is set by controls: 0 for no effect and ±100 for the full control effect; potency is the fitted concentration of half-maximal effect; tags give direction and shape of the fitted curve.

With `Cc1nc(-c2ccc(S(=O)(=O)NCc3cccnc3)s2)cs1` as the compound, how does the Potency read?
Its Potency is active: 11.6 µM.

Which Potency does the source give for `CCN(CCn1cccn1)Cc1cn[nH]c1-c1ccc(-c2ccccc2)cc1` here?
The Potency was inconclusive [inhibitor, single point].

For `CC(C)c1ccccc1OCC(O)CN1CCN(S(=O)(=O)c2ccc([N+](=O)[O-])cc2)CC1` (stereo not drawn), which Potency is on record?
Its Potency is inconclusive [inhibitor, partial curve, poor fit].

For `CC(C)CCNC(=O)CCNS(=O)(=O)c1ccc(Cl)cc1`, which “activity change, negative = growth inhibition” value is on record?
Its value is inactive: -2.47%.

With `CCc1nc2ccc(C(=O)NCCN3CCOCC3)cn2c1N(C=O)Cc1ccc(OC)cc1` as the compound, how does the “activity change, negative = growth inhibition” value read?
The value was inactive: 11.8%.

For `O=C(CN1C(=O)CSC1=O)N1CCCC(Nc2ccc(F)cc2)C1` (stereo not drawn), which “activity change, negative = growth inhibition” value is on record?
The value was inactive: 0.241%.

Which “activity change, negative = growth inhibition” value does the source give for `Cc1ccc2[nH]c(=O)c(CN(Cc3nnnn3C3CCCC3)C3CCCCC3)cc2c1` here?
The value was inactive: -12.1%.

For `COc1cccc(OC)c1C(=O)Nc1cccc(-c2nc3cc(C)cc(C)c3o2)c1`, which Potency is on record?
Its Potency is active: 13 µM.

With `CCCCn1c(=NC(C)=O)c(C#N)cc2c(=O)n3cccc(C)c3nc21` as the compound, how does the “activity change, negative = growth inhibition” value read?
The value was inactive: -29.4%.

Which “activity change, negative = growth inhibition” value does the source give for `CS(=O)(=O)c1ccc(C(=O)N2CC(=O)Nc3ccccc32)cc1` here?
The value was inactive: -12.2%.

With `Clc1ccc2nc(-c3ccc(Br)o3)c(Nc3ccc4c(c3)OCCO4)n2c1` as the compound, how does the Potency read?
The Potency was active: 20.6 µM.

With `COc1ccc(CN(C)C(=O)c2cccc(S(=O)(=O)N3CCc4ccccc43)c2)c(OC)c1` as the compound, how does the Potency read?
Its Potency is active: 20.6 µM.

Which Potency does the source give for `CN[C@H]1CCc2cc(OC)c(OC)c(OC)c2-c2ccc(OC)c(=O)cc21` here?
Its Potency is active: 237 nM and active: 20.6 nM.

With `Cc1cccn2c(=O)c(/C=C(\C#N)S(=O)(=O)c3ccccc3)c(Oc3ccc(Cl)cc3)nc12` as the compound, how does the Potency read?
The Potency was inconclusive [inhibitor, single point].

Which Potency does the source give for `COc1cc(/C=C2\CCC(C)C3=C(c4cc(OC)c(OC)c(OC)c4)C(C#N)=C(N)OC32)cc(OC)c1OC` (stereo not drawn) here?
Its Potency is active: 2.59 µM.

Which Potency does the source give for `CCc1cccc(-n2nnc(-c3nc(-c4cccs4)no3)c2N)c1` here?
Its Potency is inconclusive [inhibitor, single point].

For `CC(=O)N1CCCc2cc(S(=O)(=O)N3CCN(c4ccc(F)cc4)CC3)ccc21`, which Potency is on record?
The Potency was active: 23.1 µM.

With `COc1ccc(NC(=O)N2CCc3ccccc32)cc1` as the compound, how does the Potency read?
The Potency was inconclusive [inhibitor, single point].

For `CCC(=O)OCCCNc1nc(-c2ccc(Cl)cc2)nc2ccccc12`, which Potency is on record?
Its Potency is inconclusive [inhibitor, partial curve, poor fit].

With `Cc1nc(-c2ccc(S(=O)(=O)Nc3ccccc3C)cc2)co1` as the compound, how does the Potency read?
The Potency was inconclusive [inhibitor, single point].

For `N/C(=N\OC(=O)c1cccc(Br)c1)c1ccccn1`, which activity change, negative = growth inhibition is on record?
Its activity change, negative = growth inhibition is inconclusive: -30.5% [inhibitor].

With `COc1ccc(C(=O)N2CCC3(CC2)CN(c2ccccc2)C3)cc1` as the compound, how does the Potency read?
Its Potency is inconclusive [inhibitor, single point].

Which “activity change, negative = growth inhibition” value does the source give for `COc1cc(OC)c(OC)cc1/C=N/Nc1nc2ccccc2[nH]1` here?
Its value is inactive: 2.51%.

Which activity change, negative = growth inhibition does the source give for `Clc1ccc(SCCOCCN2CCCCC2)cc1` here?
The activity change, negative = growth inhibition was inconclusive: -30% [inhibitor].

With `CCn1cc(CN2CCC(n3nccc3NC(=O)c3ccc4c(c3)OCO4)CC2)c(C)n1` as the compound, how does the “activity change, negative = growth inhibition” value read?
The value was inactive: -10.1%.

Which Potency does the source give for `Nc1cc(=O)[nH]c(SCC(=O)Nc2cc([N+](=O)[O-])ccc2Cl)n1` here?
Its Potency is inconclusive [inhibitor, single point].

With `COc1ccc([C@@H]2[C@@H](C(=O)C(C)(C)C)N3N=Cc4ccccc4[C@@H]3C23C(=O)OC(C)(C)OC3=O)cc1OC` as the compound, how does the “activity change, negative = growth inhibition” value read?
The value was inactive: 2.24%.

For `CCC(CNC(=O)c1c(C)nn(-c2ccccc2)c1Cl)c1ccccc1` (stereo not drawn), which Potency is on record?
The Potency was active: 23.1 µM.

With `CC(OC(=O)c1ccc(-n2cnnn2)cc1)C(=O)Nc1ccc(F)c(F)c1F` (stereo not drawn) as the compound, how does the “activity change, negative = growth inhibition” value read?
The value was inactive: -22.3%.

With `Cc1nc(SCC(=O)c2cc3ccccc3oc2=O)c(C#N)c(-c2cccs2)c1C(=O)Nc1ccccc1` as the compound, how does the Potency read?
The Potency was active: 20.6 µM.

For `N#Cc1ccc(-c2nc3c4ccccc4ccn3c2Cc2ccccc2C(F)(F)F)cc1`, which Potency is on record?
Its Potency is inconclusive [inhibitor, single point].

With `Cc1ncc(CO)c(/C=N/NC(=O)c2cc(Br)ccc2O)c1O` as the compound, how does the Potency read?
The Potency was active: 16.4 µM.

For `COc1ccc(C2(C(=O)NCC3Cc4cccc(-c5nc(C)cnc5C)c4O3)CCCC2)cc1` (stereo not drawn), which Potency is on record?
The Potency was inconclusive [inhibitor, single point].

Which Potency does the source give for `Cc1cccc(-n2ccnc2SCC(=O)Nc2nccs2)c1C` here?
The Potency was inconclusive [inhibitor, single point].

With `O=C(NCc1ccccc1)C(c1ccccc1)n1c(-c2ccccn2)nc2ccccc21` (stereo not drawn) as the compound, how does the “activity change, negative = growth inhibition” value read?
The value was inactive: -24.2%.

For `CN(C)CCn1c(=N)n(CC(O)c2ccc(Cl)c(Cl)c2)c2ccccc21` (stereo not drawn), which Potency is on record?
The Potency was active: 23.1 µM.

Which Potency does the source give for `COc1ccc(S(=O)(=O)N(C)Cc2nc(-c3cccc(C)c3)no2)cc1` here?
Its Potency is inconclusive [inhibitor, single point].

With `COc1ccc2c(-c3ccccc3)cc(SCC(=O)NC(N)=O)nc2c1` as the compound, how does the “activity change, negative = growth inhibition” value read?
Its value is inactive: -29.2%.

For `CC(C)Cc1cc(C(=O)Nc2cc(Br)ccc2O)no1`, which Potency is on record?
The Potency was inconclusive [inhibitor, partial curve].

Which “activity change, negative = growth inhibition” value does the source give for `C(=C1C=c2ccccc2=C1)c1ccc(N=Nc2ccc(C=C3C=c4ccccc4=C3)cc2)cc1` here?
The value was inactive: -8.35%.

For `O=C(c1cc(C(F)(F)F)cc(C(F)(F)F)c1)N1CCC2(CCCN(Cc3nccs3)C2)CC1`, which Potency is on record?
The Potency was inconclusive [inhibitor, single point].

For `COC(=O)[C@@]12C[C@@H](CC(=O)NCCC(C)C)C(=O)N(Cc3ccccc3)C1=CCC(C)(C)C2`, which Potency is on record?
Its Potency is inconclusive [inhibitor, single point].

Which “activity change, negative = growth inhibition” value does the source give for `CCOC(=O)CNC(=O)CSc1nc2cccnc2n1Cc1ccccc1` here?
The value was inactive: -8.97%.

Which Potency does the source give for `O=[N+]([O-])c1cc(-c2csc(NCCc3nc4cc(C(F)(F)F)ccc4n3CCCO)n2)ccc1Cl` here?
Its Potency is inconclusive [inhibitor, single point].

With `CCOc1cc(C(=O)OCC(=O)Nc2cc(C)on2)cc(OCC)c1OCC` as the compound, how does the “activity change, negative = growth inhibition” value read?
Its value is inactive: -1.24%.

Which Potency does the source give for `CN(C)C(=O)c1ccc(NC(=O)c2cccnc2)cc1` here?
The Potency was inconclusive [inhibitor, single point].

With `CCOC(=O)c1nnn2c1nc(Nc1cccc(C(F)(F)F)c1)c1ccccc12` as the compound, how does the Potency read?
The Potency was active: 10.3 µM.

With `CS(=O)(=O)c1ccc(-c2nnc(NC(=O)C3=COCCO3)o2)cc1` as the compound, how does the “activity change, negative = growth inhibition” value read?
Its value is inactive: 16%.

With `O=C1OC(NCc2cccnc2)(c2ccc(Cl)cc2)c2ccccc21` (stereo not drawn) as the compound, how does the “activity change, negative = growth inhibition” value read?
The value was inactive: 7.83%.

With `COc1cc(/C=N/NC(=O)c2ccccc2O)ccc1OCC(=O)Nc1ccccc1` as the compound, how does the Potency read?
Its Potency is inconclusive [inhibitor, single point].

Which “activity change, negative = growth inhibition” value does the source give for `O=C(NCC1CCCO1)C(=O)NCC(c1ccco1)N1CCN(c2ccccc2)CC1` (stereo not drawn) here?
Its value is inactive: -21.4%.

With `Cc1ccc(S(=O)(=O)N(C)C)cc1NC(=S)Nc1ccc2[nH]c(=O)[nH]c2c1` as the compound, how does the “activity change, negative = growth inhibition” value read?
The value was inactive: 3.89%.

With `CCc1ccc(NC(=O)CN2C(=O)C(c3ccccc3)=NC23CCCCCC3)cc1` as the compound, how does the Potency read?
Its Potency is inconclusive [inhibitor, single point].

With `O=C(N/N=C/c1c(Cl)[nH]c2ccccc12)c1ccc2c(c1)OCCO2` as the compound, how does the Potency read?
The Potency was inconclusive [inhibitor, single point].

With `CC(=O)c1c(O)c2ccccc2n(Cc2ccccc2)c1=O` as the compound, how does the “activity change, negative = growth inhibition” value read?
Its value is inactive: -19.9%.

For `C=CCN(c1ccccc1)S(=O)(=O)c1cccc(C(=O)Nc2ncccc2O)c1`, which “activity change, negative = growth inhibition” value is on record?
The value was inactive: -12.8%.

Which Potency does the source give for `O=C(NCc1nc(-c2ccc(C(F)(F)F)cc2)no1)Nc1cc(Cl)cc(Cl)c1` here?
Its Potency is active: 10.3 µM.

With `C=CCn1c(=N)n(CC(=O)c2ccc(OC)cc2)c2ccccc21` as the compound, how does the Potency read?
Its Potency is inconclusive [inhibitor, single point].

For `COc1ccc(NC(=O)CCn2nnc(-c3ccc(C)cc3)n2)cc1OC`, which Potency is on record?
The Potency was inconclusive [inhibitor, partial curve].

For `Cc1cc(C(=O)NNC(=S)NC(=O)/C=C/c2ccccc2Cl)n[nH]1`, which Potency is on record?
The Potency was inconclusive [inhibitor, single point].

With `O=C(Nc1cccc(N=Cc2cc(Br)cc(Br)c2O)c1)c1ccco1` as the compound, how does the Potency read?
Its Potency is inconclusive [inhibitor, single point].

With `O=C(c1ccc2ncsc2c1)N1CCN(c2ccc(O)cc2)CC1` as the compound, how does the Potency read?
Its Potency is inconclusive [inhibitor, single point].

For `CNCc1ccccc1OCc1ccc(F)cc1`, which Potency is on record?
Its Potency is inconclusive [inhibitor, single point].

For `Cn1c2ccccc2c2cc(/C=N/NC(=O)c3cc(O)ccc3O)ccc21`, which Potency is on record?
The Potency was active: 11.6 µM.

For `COc1ccc(SC[C@H](Cc2ccccc2)N2CCN(C)CCC2=O)cc1`, which Potency is on record?
Its Potency is inconclusive [inhibitor, single point].

With `O=c1c2ccccc2ncn1Cc1cccc2ccccc12` as the compound, how does the Potency read?
The Potency was inconclusive [inhibitor, partial curve, poor fit].

Which Potency does the source give for `COc1cccc(NC(=O)CCC(=O)N2CC(C)Oc3ccc(C)cc32)c1` (stereo not drawn) here?
The Potency was inconclusive [inhibitor, partial curve].

Which Potency does the source give for `Cc1cc(C(=O)O[C@H]2[C@H](C)NS(=O)(=O)[C@H]3C[C@@H]4C=C[C@]23O4)cc([N+](=O)[O-])c1` here?
Its Potency is “inactive”.

Which Potency does the source give for `CC1CN(C(=S)NC(=O)c2ccc(Cl)cc2)CC(C)O1` (stereo not drawn) here?
The Potency was inconclusive [inhibitor, single point].

With `Cc1ccc(-c2cc(C(F)(F)F)n3nc(C(=O)Nc4c(C)n(C)n(-c5ccccc5)c4=O)cc3n2)cc1` as the compound, how does the “activity change, negative = growth inhibition” value read?
The value was inactive: -28.5%.

Which Potency does the source give for `CCCCc1ccc(NC(=O)COc2cccc3c(=O)n(C)ccc23)cc1` here?
Its Potency is active: 13 µM.

Which Potency does the source give for `O=C1[C@H]2[C@@H](c3ccc(C(F)(F)F)cc3)N[C@]3(CCCN(Cc4ccccc4)C3=O)[C@H]2C(=O)N1Cc1ccccc1` here?
Its Potency is active: 23.1 µM.

Which Potency does the source give for `Cc1ccc(NC(=O)C2CCCN(c3nnc(-n4c(C)ccc4C)s3)C2)cc1Cl` (stereo not drawn) here?
The Potency was inconclusive [inhibitor, single point].
